{"source": "PubChem BioAssay AID588593", "about": "(Sanford-Burnham Center for Chemical Genomics, 2011)", "biological_target": "glucose-6-phosphate dehydrogenase-6-phosphogluconolactonase (Plasmodium falciparum 3D7)", "assay": "inhibition of P. falciparum G6PD activity – biochemical, kinetic NADPH detection, orthogonal assay, SAR follow-up (AID 588593)", "settings": "recombinant PfG6PD-6PGL", "note": "Some entries of the source have several records that differ or are many. The other results are left out here. There may be further records. The values listed for one entry repeat one measurement (runs, samples, wells, individuals or studies). Marks in square brackets tell the records apart. A, B and so on number the origins entry by entry."}
{"smiles": "CCN1CCCC1CNC(=O)c1ccc2c(c1)NC(=O)/C(=C/c1ccccc1F)S2", "note": "(stereo unspecified)", "values": [{"measurement": "IC50", "result": "1.37 µM [sample A] and 21.5 µM [sample B]"}]}
